# Data from ChEMBL document CHEMBL4513135, “CO-ADD screening of IQOG CSIS (Spain) compounds”.
# The list shows a part of the results. Entries with a potency or affinity are not part of this list.
# System: Acinetobacter baumannii
# Settings: Concentration 32 ug.mL-1; ASSAY_TEST Inhibition of Bacterial Growth; detection method Absorption (OD600); MEDIA CAMHB; plate type 384well; NBS; CORNING #3640; time 18 hr
row,Compound,Inhibition [%]
1,N#C/C(=C\c1ccccc1)C(=O)c1ccccc1,1.46
2,NC(=O)c1cc2cc(OCc3ccccc3)ccc2[nH]1,12.15
3,Nc1c2c(nc3c1c1ccccc1n3Cc1ccccc1)CCCC2,8.02
4,Nc1c2c(nc3c1CC(c1c(Cl)cccc1Cl)C(=O)N3)CCCC2 (stereo not drawn),-12.75
5,COc1nc2nc3c(c(N)c2cc1C#N)CCCC3,14.41
6,Cn1cc(C(=O)NN)c2ccccc21,7.79
7,O=C(COc1ccc2ccccc2c1)NNCc1c[nH]c2ccccc12,1.05
8,Nc1c2c(nc3c1C(c1ccccc1)c1ccc4ccccc4c1O3)CCCC2 (stereo not drawn),-23.73
9,CC1Cc2ccccc2N1/N=C/c1ccccc1 (stereo not drawn),-9.9
10,O=C(NCc1ccccc1)c1cc2ccccc2[nH]1,5.8
11,C#CCNc1nc(NCCCC2CCN(Cc3ccccc3)CC2)c(C#N)cc1C#N.Cl,14.78
12,Cl.NC1(C(=O)O)CC1c1ccccc1 (stereo not drawn),0.02
13,CN(Cc1cn(Cc2ccccc2)nn1)Cc1cc2cc(OCCCC3CCN(Cc4ccccc4)CC3)ccc2n1C,0.85
14,N#Cc1cc2c(N)c3c(nc2nc1N1CCCCC1)CCCC3,27.68
15,CCOC(=O)c1cc2cc(OC(=O)Oc3ccc([N+](=O)[O-])cc3)ccc2[nH]1,8.04
16,COc1ccc(C2c3c(ccc4ccccc34)OC(=NBr)C2(Br)C#N)cc1OC (stereo not drawn),-8.68
17,O[C@H]1CC[C@H](NCc2ccccc2)CC1,16.65
18,CCOc1nc2nc(C)c(C=C3CCN(Cc4ccccc4)CC3)cc2c(-c2ccccc2)c1C#N,-1.33
19,COc1ccc(-c2cc(-c3ccccc3)c(C#N)c(N)n2)cc1,-6.82
20,O=C(N/N=C/Cc1ccccc1)c1cc2ccccc2n1Cc1ccccc1,0.71
21,CNC(=O)c1cc2cc(OC)ccc2[nH]1,1.46
22,N#CC1(Br)C(=NBr)Oc2c(ccc3ccccc23)C1c1cccc([N+](=O)[O-])c1 (stereo not drawn),-0.35
23,COc1ccccc1[C@H]1c2c(ccc3ccccc23)O/C(=N\Br)[C@@]1(Br)C#N,0.87
24,Nc1ccccc1C(=O)N/N=C/c1c[nH]c2ccccc12,-9.81
25,C#CCNc1nc(NC2CCN(Cc3ccccc3)CC2)c(C#N)c(-c2ccccc2)c1C#N,-6.34
26,COc1ccc(C2c3c(nc4c(c3N)CCCC4)Oc3ccc4ccccc4c32)cc1 (stereo not drawn),-20.83

row,Compound,Inhibition [%]
1,CCOC(=O)C1=C(C)OC(N)=C(C#N)C1c1ccncc1 (stereo not drawn),9.18
2,CCOC(N)=CC#N,7.15
3,COc1ccc(C2C(C#N)=C(N)Oc3[nH]nc(C)c32)cc1 (stereo not drawn),-4.21
4,N#CC1(Br)C(=NBr)Oc2ccc3ccccc3c2C1c1cccc([N+](=O)[O-])c1 (stereo not drawn),7.49
5,Cn1c(C(=O)O)cc2ccccc21,-3.44
6,Cc1nc(Nc2ccccc2)c2c(C)nn(-c3ccccc3)c2n1,7.57
7,CN(C)c1nc(N)c(C#N)cc1C#N,-1.69
8,Nc1nc(N)c(C=O)c(-c2ccccc2)c1C=O,5.37
9,Nc1c2c(nc3c1C(c1c(Cl)cccc1Cl)c1ccc4ccccc4c1O3)CCCC2 (stereo not drawn),-3.08
10,C#CCN(C)Cc1cc2cc(OCOc3ccc4c(c3)cc(CN(C)CC#C)n4C)ccc2n1C,4.72
11,C=CCNc1nc(N)c(C#N)cc1C#N,7.75
12,Cl.Cl.Cn1c(CNc2ccccc2)cc2cc(OCCCC3CCN(Cc4ccccc4)CC3)ccc21,8.45
13,COc1ccc(CNNC(=O)c2cc3ccccc3[nH]2)cc1O,0.94
14,CCOc1nc2nc(CCc3ccccc3)ccc2c(-c2ccccc2)c1C#N,8.83
15,COc1cc(C2C(C#N)=C(N)Oc3c2ccc2ccccc32)ccc1O (stereo not drawn),0.3
16,CSC1=NC(=Cc2cn(C(c3ccccc3)(c3ccccc3)c3ccccc3)c3ccccc23)C(=O)N1C,5.84
17,CC(C)CC(C)NNC(=O)c1cc2ccccc2[nH]1 (stereo not drawn),-10.74
18,CC(C)C(=O)N/N=C/c1c[nH]c2ccccc12,3.44
19,Cc1ccc(C2c3ccc4ccccc4c3Oc3nc4c(c(N)c32)CCCC4)cc1 (stereo not drawn),-13.4
20,N#Cc1cc(C#N)c(NCCC2CCN(Cc3ccccc3)CC2)nc1N,-4.7
21,C#CCNc1nc(N)c(C#N)c(-c2ccccc2)c1C#N,6.11
22,CCOC(=O)c1c(C)[nH]c(=O)c(C#N)c1-c1ccccc1,7.57
23,Cc1ccc(-c2c(C#N)c(N)nc3c2S(=O)(=O)OC3(C)C)cc1,-3.73
24,N#C[C@]1(Br)C(=N)Oc2ccc3ccccc3c2[C@@H]1c1ccc([N+](=O)[O-])cc1,-2.93
25,Cl.OCC1CCN(Cc2ccccc2)CC1,-0.64
26,Cc1[nH]c2ccc(OCc3ccccc3)cc2c1C(=O)NN,-3.46

row,Compound,Inhibition [%]
1,C#CCN(C)c1nc(NCCC2CCN(Cc3ccccc3)CC2)c(C#N)cc1C#N.Cl,-7.83
2,COc1ccc(C2c3ccc4ccccc4c3OC(=NBr)C2(Br)C#N)cc1OC (stereo not drawn),5.46
3,Cn1cc(C=O)c2ccccc21,1.96
4,Cc1nc2c3cnn(-c4ccccc4)c3ncn2n1,0.69
5,CC#CCN(C)Cc1cc2cc(OCc3ccccc3)ccc2n1C.O=C(O)C(=O)O,-16.39
6,COc1ccc(C2C(C#N)=C(N)Oc3ccc4ccccc4c32)cc1OC (stereo not drawn),5.81
7,COc1ccc2c(c1)cc(CO)n2C,10.29
8,NOC(=O)C1CCN(Cc2ccccc2)CC1,-3.02
9,N#Cc1cc(C#N)c(N2CCCC2)nc1N,7.32
10,COc1cccc(C2c3ccc4ccccc4c3OC(=NBr)C2(Br)C#N)c1 (stereo not drawn),0.8
11,COc1ccc(-c2cc(-c3cc4ccccc4nc3Cl)cc(=O)[nH]2)cc1,7.43
12,Cc1ccc(C2c3ccc4ccccc4c3Oc3nc4c(c(N)c32)CCCC4)cc1.Cl (stereo not drawn),-7.54
13,O=C(NNCc1ccco1)c1cc2ccccc2[nH]1,-13.18
14,COc1ccc2c(c1)cc(CN)n2C,1.13
15,CNCc1cc2ccccc2n1C.Cl,15.36
16,N#CC1=C(Cl)Oc2ccc3ccccc3c2C1c1ccccc1 (stereo not drawn),-0.13
17,COc1ccc(C2c3c(ccc4ccccc34)OC(=NBr)C2(Br)C#N)cc1 (stereo not drawn),5.41
18,C/C(Cc1ccccc1)=N\NC(=O)c1c[nH]c2ccccc12,1.21
19,CC1(C)OC(=O)C(=Cc2ccc([N+](=O)[O-])cc2)C(=O)O1,-3.37
20,COc1[nH]c(=O)ccc1C#N,7.22
21,C#CCN(C)Cc1cc2cc(OCCC3CCN(Cc4ccccc4)CC3)ccc2n1C.Cl,-0.11
22,O=C(O)/C(=C\c1ccccc1)NC(=O)c1ccccc1,2.34
23,O=Cc1c(-c2ccc(Br)cc2)nc2ccccn12,-2.16
24,CC(=O)CCc1c[nH]c2ccccc12,1.93
25,Cn1c(C(=O)N2CCOCC2)cc2cc(OCCCC3CCN(Cc4ccccc4)CC3)ccc21,9.51
26,O=C1SC(SCc2ccccc2)=NC1=Cc1ccc2c(c1)OCO2,3.86

row,Compound,Inhibition [%]
1,C=C1CN(C)c2c(C#N)cc(C#N)c(=N)n21,6.5
2,N#Cc1cc(C#N)c(NCCO)nc1N,7.07
3,CCOC(=O)C1=C(C)OC(N)=C(C#N)C1c1ccc(OC)cc1 (stereo not drawn),-3.58
4,CCC(CC)NNC(=O)c1cc2ccccc2n1C,6.76
5,N#CCC(=C(C#N)C#N)c1ccccc1,-2.63
6,CC(=O)Oc1cccc(C=C2N=C(c3ccccc3)OC2=O)c1,12.29
7,Clc1ccc(-c2cn3ccccc3n2)cc1,4.91
8,O=C(N/N=C/c1c[nH]c2ccccc12)c1ccco1,3.07
9,Cc1ccc2nc(Cl)c(/C=N/C(C)(C)C)cc2c1,11.21
10,Cc1ccc2[nH]c(=O)c(C=O)cc2c1,9.57
11,CCOC(=O)c1cc2cc(OC)ccc2n1C,-6.47
12,OCc1cc2ccccc2[nH]1,-4.62
13,Br.C#CCNCC,4.5
14,Cc1ccc(C2C(C#N)=C(N)Oc3c2ccc2ccccc32)cc1 (stereo not drawn),-13.43
15,CCOC(=O)C1=C(C)Nc2nc3c(c(N)c2C1c1cccc(OC)c1)CCCC3 (stereo not drawn),11.14
16,Nc1c2c(nc3c1C(c1ccc(O)cc1)c1c(ccc4ccccc14)O3)CCCC2 (stereo not drawn),-2.52
17,O=C(NNC(Cc1ccccc1)Cc1ccccc1)c1cc2ccccc2[nH]1,-9.13
18,CCOC(=O)c1c(C)nc(/N=N/c2nc(C)c(C(=O)OCC)c(-c3ccccc3)c2C#N)c(C#N)c1-c1ccccc1,-5.12
19,Cc1nn(-c2ccccc2)c2nc(C)n3nc(-c4ccccc4)nc3c12,7.64
20,CCOC(=O)c1cc2c(N)c3c(nc2nc1C)CCCC3,14.51
21,N#CC1=C(Cl)Oc2c(ccc3ccccc23)C1c1ccccc1[N+](=O)[O-] (stereo not drawn),-8.55
22,C#CCN(C)c1nc(NCC2CCN(Cc3ccccc3)CC2)c(C#N)c(-c2ccccc2)c1C#N.Cl,-17.77
23,COc1ccc(-c2cc(-c3cc4ccc(OC)cc4nc3Cl)cc(=O)[nH]2)cc1,-1.26
24,C#CCN(C)c1nc(OC)c(C#N)c(-c2ccccc2)c1C#N,9.35
25,Cn1c(CO)cc2cc(OCCCC3CCN(Cc4ccccc4)CC3)ccc21,3.04
